Measured values taken from paper PMC4336329 (PLoS ONE, 2015).
About 2,200 (0.71%) of roughly 310,000 compounds showed an effect of 50% or more. The effect is printed as a negative number. The list shows a part of the results.

Molecular target: human ether-à-go-go-related gene (hERG) potassium channel (human, UniProt Q12809)
Experiment: primary screen, population patch clamp on CHO cells stably expressing hERG

human ether-à-go-go-related gene (hERG) potassium channel, sequence (Q12809 whole entry, looked up): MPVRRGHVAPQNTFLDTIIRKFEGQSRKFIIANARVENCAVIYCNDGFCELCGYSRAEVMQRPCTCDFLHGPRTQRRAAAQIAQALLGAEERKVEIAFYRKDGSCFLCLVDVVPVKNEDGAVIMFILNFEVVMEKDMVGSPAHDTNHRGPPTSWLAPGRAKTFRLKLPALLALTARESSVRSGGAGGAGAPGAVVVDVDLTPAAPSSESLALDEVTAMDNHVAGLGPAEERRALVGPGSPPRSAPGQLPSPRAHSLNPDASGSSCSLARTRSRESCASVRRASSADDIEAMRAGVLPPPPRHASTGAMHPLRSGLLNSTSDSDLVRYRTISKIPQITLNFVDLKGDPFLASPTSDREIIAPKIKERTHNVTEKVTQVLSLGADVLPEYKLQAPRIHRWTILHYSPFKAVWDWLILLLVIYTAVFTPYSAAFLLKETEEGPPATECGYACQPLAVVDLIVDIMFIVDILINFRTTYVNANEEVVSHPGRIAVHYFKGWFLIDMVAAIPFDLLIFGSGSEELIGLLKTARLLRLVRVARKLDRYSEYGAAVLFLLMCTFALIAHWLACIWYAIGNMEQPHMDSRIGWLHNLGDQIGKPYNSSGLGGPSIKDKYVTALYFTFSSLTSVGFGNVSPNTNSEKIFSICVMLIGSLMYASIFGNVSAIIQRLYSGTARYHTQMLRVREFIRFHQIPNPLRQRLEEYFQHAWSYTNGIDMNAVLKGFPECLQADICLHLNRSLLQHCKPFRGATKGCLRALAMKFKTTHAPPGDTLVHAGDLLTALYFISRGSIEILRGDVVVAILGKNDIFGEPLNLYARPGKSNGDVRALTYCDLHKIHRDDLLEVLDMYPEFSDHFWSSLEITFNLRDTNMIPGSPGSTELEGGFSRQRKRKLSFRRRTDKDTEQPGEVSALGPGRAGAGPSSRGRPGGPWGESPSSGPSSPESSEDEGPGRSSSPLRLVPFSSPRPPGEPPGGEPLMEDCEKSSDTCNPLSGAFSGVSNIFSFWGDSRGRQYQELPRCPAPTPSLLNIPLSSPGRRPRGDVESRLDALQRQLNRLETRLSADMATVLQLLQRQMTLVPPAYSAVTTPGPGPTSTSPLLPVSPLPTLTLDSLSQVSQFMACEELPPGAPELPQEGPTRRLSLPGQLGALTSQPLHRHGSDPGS

Structure (SMILES)	hERG current change (%, negative = inhibition) at 1uM [%]
O=C(Cn1cc(-c2nnnn2-c2ccc(Cl)cc2)c(=O)c2ccccc21)c1ccccc1	7.63
CCNC(=S)N1CCC(C(O)(c2ccccc2)c2ccccc2)CC1	15.7
O=C(CNC(=O)c1ccco1)OCC(=O)c1ccc(Cl)cc1	-1.2
Cc1cc[n+](Cc2ccccc2)c(N)c1.[Cl-]	4.97
O=C(O)C(c1ccccc1)C(c1ccccc1)c1ccccc1 (centres unmarked)	7.25
O=C(O)C(Cc1ccccc1)n1c(=S)[nH]c2ccccc2c1=O (centres unmarked)	16.6
CCN1CCc2c(OCC(=O)N3CCC(C)CC3)cccc2C1=O	16.4
O=C(CCN1C(=O)/C(=C\c2ccc(F)cc2)SC1=S)Nc1ccc(O)cc1	15.2
O=c1ccc2cc(S(=O)(=O)N3CCN(c4ccccc4F)CC3)ccc2[nH]1	-14.9
CC(=O)C1=C(O)C(=O)N(Cc2ccccc2)C1c1ccco1 (centres unmarked)	11.2
COCCNC(=O)c1ccc(-n2c(SCc3cc(F)ccc3F)nc3ccccc3c2=O)cc1	14.4
Cc1ccc(S(=O)(=O)Nc2nc3ccc(S(C)(=O)=O)cc3s2)cc1	14
N#CCCN/N=C(/Cc1nc2ccccc2[nH]1)c1ccc(Cl)cc1	9.16
CCCCNS(=O)(=O)c1ccc(OC)c2ncccc12	2.72
O=C(COC(=O)c1c[nH]c(=O)[nH]c1=O)Nc1ccccc1F	7.85
O=C(NCc1ccc(OC(F)(F)F)cc1)C1CC(c2ccccc2C(F)(F)F)=NO1 (centres unmarked)	3.2
O=C(CSc1ccc2c(c1)OCCO2)Nc1cccnc1	15.2
Cc1ccc(/C=N/NC(=O)Cc2ccc(Cl)cc2)c(O)c1	4.75
CCN1CCCC1CNC(=O)c1cc2c(OC)c(OC)c(OC)cc2[nH]1 (centres unmarked)	15.2

Structure (SMILES)	hERG current change (%, negative = inhibition) at 1uM [%]
CCc1nnc(NC(=O)CSc2nnc(-c3ccco3)n2C)s1	1.33
c1ccc2[nH]c(CSc3nccs3)nc2c1	-5.9
CC(C)(C)C1CCC(=NNC(=O)c2ccc(Br)o2)CC1 (centres unmarked)	15.6
O=[N+]([O-])c1ccc(Nc2nc(N/N=C/c3cccc(F)c3)nc(N3CCCC3)n2)cc1	0.507
CC(C)(C)c1ccc(C(CC(=O)O)NC(=O)Cc2ccc(F)cc2)cc1 (centres unmarked)	10.9
COc1ccccc1CNC(=O)COC(=O)c1ccc2c(=O)n3c(nc2c1)CCCCC3	10.1
Cc1ccc(S(=O)(=O)N2[C@@H](c3cccc(Cl)c3)C(C(=O)O)=CC[C@H]2c2ccc(Cl)cc2)cc1	14
O=C(NC12CC3CC(CC(C3)C1)C2)C12CC3CC(C1)CC(n1cnc(Cl)n1)(C3)C2	7.58
CN1C(=O)NC(c2ccccc2Cl)C2=C1CC(C)(C)CC2=O (centres unmarked)	10.4
CCc1ccccc1NC(=O)CSc1nc2ccccc2n1CC(=O)N1CCCC1	9.64
CCOc1ccccc1NC(=O)C1CCCN(C(=O)Nc2ccccc2)C1 (centres unmarked)	14.1
CCO[C@@H]1OC(C(=O)NCc2nc3ccccc3[nH]2)=C[C@H](c2ccc(C(F)(F)F)cc2)[C@H]1CCCO	16.6
Cc1nnc(-c2ccccc2)nc1N(C)C	6.41
COc1ccc(C(=O)N(CC(=O)Nc2sc(C)c(C)c2C(N)=O)C2CCCC2)cc1	4.92
COc1ccc(NC(C)=O)cc1S(=O)(=O)Nc1ccc2c(c1)OCCO2	4.09
COc1ccccc1OCc1ccc(C(=O)N(C)C)o1	18.9
CC1OC2(OC1C)C(=O)Nc1ccccc12 (centres unmarked)	6.93
CNC(=O)N1CCN(C(=O)NC)CC1	14.3
CCSc1nnc2c(n1)OC1(CCCC1)Nc1ccccc1-2	7.49

Structure (SMILES)	hERG current change (%, negative = inhibition) at 1uM [%]
N#CC(=C1CCCC1)c1nc(-c2ccccc2O)cs1	2.91
COc1ccc(/C(C)=C2/SC(=S)N(CCC(=O)O)C2=O)cc1	8.62
O=C1C(=O)N(Cc2ccccc2)C(c2cccc(O)c2)/C1=C(\O)c1ccc2c(c1)OCCO2 (centres unmarked)	7.58
CN(C)C(=S)NC(=O)C12CC3(C)CC(C)(CC(C)(C3)C1)C2	12.9
O=C(Nc1nc(-c2nc3ccccc3s2)cs1)C1COc2ccccc2O1 (centres unmarked)	13.3
O=C(NCCS(=O)(=O)N1CCN(c2ccccc2F)CC1)c1ccc2c(c1)OCO2	18.2
CS(=O)(=O)N1CCC(Oc2ccccc2C(=O)N2CCN(CC3CC3)CC2)CC1	12.6
CC(C)C[C@H]1COCCS(=O)(=O)N1Cc1ccc(Cl)c(Cl)c1	10.1
COCCCNC(=O)/C(C#N)=c1\s/c(=C\c2ccccc2OC(F)F)c(=O)n1CCCOC	17.5
O=C1Nc2ccc(S(=O)(=O)N3CCOCC3)c3cccc1c23	12.6
COc1ccc(C2NC(Cc3ccccc3)(C(=O)O)C3C(=O)N(c4ccccc4OC)C(=O)C23)cc1 (centres unmarked)	14.4
O=C(CSc1nc2c(c(=O)n1-c1ccccc1)SCC2)N1CCOCC1	14.7
Cc1cccc(NS(=O)(=O)c2c(C)[nH]c(C)c2C(=O)N2CCCC2)c1	9.15
COc1ccc([N+](=O)[O-])cc1NC(=S)Nc1ccccc1	3.35
Cc1ccccc1C(=O)NNC1=NCCC1	2.43
CCCN(CCC)C(=O)CSc1nc2ccccc2c(=O)n1CC1COc2ccccc2O1 (centres unmarked)	-4.64
CC(C)CNC(=O)COC(=O)c1cc(Cl)cc(Cl)c1N	-7.19
COC(=O)c1ccc(CNC(=O)c2ccc3oc(C(C)C)nc3c2)cc1	7.66
